Measured values: ChEMBL document CHEMBL4888484, “Replenishing the malaria drug discovery pipeline: Screening and hit evaluation of the MMV Hit Generation Library 1 (HGL1) against asexual blood stage Plasmodium falciparum ,using a nano luciferase reporter read-out” (2022)
Among all 150,000 compounds or so, about 540 (0.36%) showed an effect of 50% or more. The list shows a part of the results.

tested on: Plasmodium falciparum; assay: Primary screen in NF54 nanoGlo assay, in single point, at 2uM, 72h; a lower Z score goes with more inhibition; format: functional, Erythrocyte; details: timepoint 72 hour

Structure (SMILES)	% Inhibition	Z score
C=CCN1C(=O)NC(=O)[C@@]2(Cc3cc(C)ccc3N(C)C2)C1=O	-16%	1.43
Cc1cnc(C)c(N2CCC[C@H]2c2cccnc2)n1	-9%	0.98
CC(C)Cc1noc(CN(C)C(=O)CN2CC3(CCCC3)CC2=O)n1	-2%	0.34
CO[C@H]1C[C@H]2CC[C@@H](C1)N2Cc1nc2ccccc2[nH]1	2%	-0.27
CN(C)CC(=O)Nc1ccc2n(c1=O)C[C@H]1C[C@@H]2CN(S(=O)(=O)c2ccccc2)C1	-1%	0.12
O[C@H]1CCN(Cc2cncc(C(F)(F)F)c2)C12CCCC2	-5%	1.01
Cc1cc(C)c2[nH]c(C)c(CC(=O)N3CCCN(C)CC3)c2c1	-9%	1.22
Cc1nc(-c2cc(S(=O)(=O)N3CCC[C@H](C(=O)N4CCC5(CC4)OCCO5)C3)c(C)s2)no1	-12%	1.24
COc1ccc(C2=NCC(=O)Nc3c2oc2ccccc32)cc1	-7%	0.93
CCC1CN2CCCCC2CN1C(=O)c1cccnc1O (stereo unspecified)	-2%	0.24
COc1ccc(N2CCN(CCc3nc4ccccc4c(=O)[nH]3)CC2)nc1	-14%	2.26
COc1cccc([C@H]2CN(C(=O)OCC(C)C)[C@@H]3C4CCN(CC4)[C@H]23)c1	-6%	0.95
C[C@@H](Cc1nc2ccccc2s1)NCCCn1cccn1	-4%	0.49
CCO[C@@H](CN(C)C)c1ccccc1OC	-14%	1.76
O=C(Cc1ccc(Cl)cc1)N1CCC2(CC1)OCCO2	-8%	1.39
O=C(c1cnn2ccccc12)N1C[C@H]2CC[C@@H](C1)N(CC1CC1)C2	-4%	0.68
CCN(CC)C(=O)Oc1ccc2c(ccn2Cc2ccc(Cl)cc2)c1NC(=O)c1cc(F)cc(F)c1	-1%	0.16
O=C(c1ccc[nH]1)N1C[C@@H]2CC[C@H]1CN(Cc1ccccn1)C2	-3%	0.63
Cc1cc(C(=O)N2CCC3(CC2)OCCO3)sc1C	-18%	1.66
CCN(CC)c1onc(-c2ccccc2)c1CN(CCN1CCOCC1)C(=O)Cc1ccccc1	3%	-0.56
Cc1[nH]c2ccccc2c1C(=O)[C@H](C)N1CCCCCC1	-15%	2.1
CCCn1c(=O)oc2cc(S(=O)(=O)N3CCC(CC(=O)Nc4ccc(F)cc4C)CC3)ccc21	-10%	0.89
O=C(CCc1c[nH]cn1)N1CCc2c(Cl)cccc21	-13%	1.47
O=C(C[N+]12CCC(CC1)[C@@H](C(O)(c1ccccc1)c1ccccc1)C2)c1ccc(Br)cc1	1%	-0.23
CCc1nc(C)c(CC(=O)N2C[C@H]3CC[C@@H](C2)N(CC=C(C)C)C3)c(=O)[nH]1	3%	-0.27
CN(CC(C)(C)C)C(=O)N1CC2CCC1CN2 (stereo unspecified)	0%	0.03
Cc1nc[nH]c1CN1C[C@H]2CC[C@@H](C1)N(C(=O)Cc1c[nH]c3ccccc13)C2	-10%	0.97

Structure (SMILES)	% Inhibition	Z score
Cc1ccc(N2C[C@H](c3cc(F)cc(F)c3)[C@@H]3[C@H]2C2CCN3CC2)nn1	-19%	1.73
CCN1C(=O)C(O)(C(F)(F)F)c2cc(C(O)(C(=O)OC)C(F)(F)F)ccc21 (stereo unspecified)	4%	-0.46
N#Cc1cccc(CN2C3CCC2CC(=O)C3)c1	-16%	1.99
Cc1ccc(CN2CCN(C(=O)Cc3cccnc3)[C@H]3CS(=O)(=O)C[C@H]32)o1	5%	-0.92
COCCn1cc(C(=O)NCc2c(F)cccc2OC(F)F)nn1	34%	-3.83
COc1ccccc1NC(=O)N1C[C@@H]2C[C@H](C1)c1c(C3CCCCC3)ccc(=O)n1C2	-6%	1.12
CC(NC[C@H](C)O)C(C)(C)c1ccc(F)cc1 (stereo partly specified)	-3%	0.44
C1CCC(C2CCCCC2NC2CC2)CC1 (stereo unspecified)	-3%	0.42
O=C1OCCN1c1cccc2c1CCNC2	-13%	2.07
c1cc(-c2cc3c(N4CCNCC4)cccc3s2)c2ccsc2c1	-1%	0.11
O=C(NCc1ccccc1)N1Cc2ccccc2-n2cccc2[C@H]1c1ccccc1	-9%	1.11
Cn1ccc2[nH]c(C(=O)N3C4CCC3C(CO)C4)cc21 (stereo unspecified)	-6%	0.73
O=C1CCN(C(=O)c2ccc(S(=O)(=O)N3CCCCC3)cc2)CC1	-2%	0.38
COc1ccc(Cl)cc1C(=O)[C@H]1CCCN(Cc2cccc(C)n2)C1	-2%	0.41
COc1cc(NCc2cnc(N(C)C)nc2)ncc1Br	-11%	2.05
O=C1NC(=O)C2(Cc3cc(C(F)(F)F)ccc3N3CCCCC32)C(=O)N1c1ccccc1 (stereo unspecified)	36%	-4.03
O=C(NCCc1cccc(Cl)c1)N1CCN([C@H]2CN3CCC2CC3)CC1	-14%	2.67
Cc1cc(C)n(CCN2C[C@@H](C(=O)O)[C@H](c3ccc(Br)cc3)C2)n1	5%	-0.93
c1cncc(CN(Cc2noc(C3CCCC3)n2)[C@H]2CN3CCC2CC3)c1	1%	-0.11
Cc1csc(O[C@H]2CN3CCC2CC3)n1	1%	-0.07
c1cc2c(c(-c3ccc4ncccc4c3)c1)CCNC2	-12%	2.36
C1CCC(NC2CCCC3OCCC23)CC1 (stereo unspecified)	-3%	0.52
CC(Cc1ccc(Cl)cc1)NCC1CCCS1(=O)=O (stereo unspecified)	6%	-0.69
CC(C)NC(=O)N1C[C@@H]2C[C@H](C1)c1ccc(-c3cccnc3)c(=O)n1C2	-6%	0.76
CCOc1ccc(NC(=O)C(Cl)(Cl)Cl)cc1	-7%	1.2
CCn1ccc(C(=O)N2CCC3(CC2)NCc2ccccc2-n2ccnc23)n1	7%	-0.95
